# Where “and” joins values, the source holds several entries; their conditions need not be identical. Equal values may be shown once.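 Five concentrations, 48 hours, 96-well plates. The concentration for 50% growth inhibition is given as GI50. TGI: total growth inhibition.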
# Test system: NCI-H322M lung
# Test: NCI tumour cell line growth inhibition, 48 h
SMILES,TGI,GI50
Cc1cc(N(CCC#N)CCC#N)ccc1/C(N=Nc1ccc(Cl)cc1)=N\NC(=O)c1ccccc1,> 100 µM,–
CC(C)CCC[C@@H](C)[C@H]1CC[C@H]2[C@@H]3CC=C4C[C@@H](C(C(=O)O)C(=O)O)CC[C@]4(C)[C@H]3CC[C@]12C,24.7 µM,0.871 µM
c1ccc(N=C2SC3=Nc4cccc5cccc(c45)N3C2=Nc2ccccc2)cc1,> 100 µM,–
Cn1cc(C2=C(c3cn(C)c4ncccc34)C(=O)NC2=O)c2ccccc21,> 25 µM,12.5 µM
Oc1cccc2c(Cl)ccnc12,81.3 µM,–
O=c1[nH][nH]c(=O)n1Cc1ccccc1Cn1c(=O)[nH][nH]c1=O,> 100 µM,–
CC(C)CC(=O)OC[n+]1ccc(-c2c(COC(=O)NC(C)C)c(COC(=O)NC(C)C)c3n2CCC3)cc1,> 100 µM,–
CCCCCCCCCCCCCCCCCC(CCCCCCCCCCCCCCCCC)OP(=O)(O)O,> 100 µM,–
CC[C@@]1(O)C[C@H](OC2CC(N(C)C)C(O)C(C)O2)c2c(O)c3c(c(O)c2[C@H]1OC1CC(N(C)C)C(O)C(C)O1)C(=O)c1cccc(O)c1C3=O (stereo not given in full),0.415 µM and 0.079 µM,< 0.01 µM
Cc1coc2c1CC1(C)C(CCC(O)C1C)C2 (stereo not given),> 100 µM,–
N#CC1C(C#N)C2(c3ccccc3)C(c3ccccc3)=NN(c3ccccc3)CC12 (stereo not given),> 100 µM,–
CC1C=C(CCCCCCCCCCCC[C@@H](O)[C@@H]2CC[C@@H]([C@@H]3CC[C@@H](C(O)CCCCCCCCCCCCC4=C[C@H](C)OC4=O)O3)O2)C(=O)O1 (stereo not given in full),> 100 µM,–
COc1ccc(C(=O)C(C(=O)CCC(=O)Nc2ccc(C)c(C)c2)c2ccc(OC)cc2)cc1 (stereo not given),> 100 µM,–
O=C(O)CCc1coc2ccc(O)cc12,> 100 µM,–
CN1C(=O)C(C)(C)C2(SC(C)(C)C2(C)C)N(C)C1=S (stereo not given),> 100 µM,–
CCOC(=O)[C@]1(OC(C)=O)C[C@H](OC(C)=O)[C@@H](C(F)COP(=O)(OCc2ccccc2)OCc2ccccc2)O1 (stereo not given in full),> 100 µM,–
COC(=O)[C@H]1CO[C@@H](C(C)(C)C)N1C(=O)N1C=CC(=O)C[C@@H]1C,> 100 µM,–
Nc1ccccc1SC(C[N+](=O)[O-])c1ccc2c(c1)OCO2 (stereo not given),22.8 µM,–
COC(=O)[C@@H]1[C@H](O)[C@H](C)[C@H](O)[C@@](C)(O)/C=C\C=C(C)C(=O)Nc2c(C)c(OC(C)=O)c3c(c2O)C(=O)C(C)=C2OCOC(=C23)C(C)=C[C@@](C)(O)[C@H](O)[C@@H](C)[C@H]1OC(C)=O,> 100 µM,–
CN(C)C(=N)c1ccccc1,> 100 µM,–
COC(CN1C(=O)c2cccc3cccc(c23)C1=O)OC,> 100 µM,–
O=CC[C@H]1C(=O)C[C@@H]2CCC[C@@H]21,> 100 µM,–
